From ChEMBL document CHEMBL4888484, “Replenishing the malaria drug discovery pipeline: Screening and hit evaluation of the MMV Hit Generation Library 1 (HGL1) against asexual blood stage Plasmodium falciparum ,using a nano luciferase reporter read-out” (2022)
Screen size: about 150,000 compounds; about 540 (0.36%) showed an effect of 50% or more. The list shows a part of the results.

What follows are compounds tested on Plasmodium falciparum (assay: Primary screen in NF54 nanoGlo assay, in single point, at 2uM, 72h; a lower Z score goes with more inhibition). Conditions: timepoint 72 hour.
Format: functional, Erythrocyte

**Q.** For `CCc1cnccc1C(=O)OCCc1cn[nH]c1`, which “% Inhibition” value is on record?
**A.** Its value is -4%.

**Q.** And the Z score?
**A.** Its Z score is 0.7.

**Q.** With `Cc1ccc([C@@H](N)CC(F)(F)F)cc1` as the compound, how does the “% Inhibition” value read?
**A.** The value was 4%.

**Q.** What about the Z score of the same compound?
**A.** Its Z score is -0.65.

**Q.** What does the source list for `COc1ccc(C2=NC3(CCCCC3)N(C(=O)c3ccc(C)cc3)C2=O)cc1`?
**A.** % Inhibition: -7%; Z score: 0.65

**Q.** With `Cn1cc(CCNC(=O)[C@]2(O)CCOC2)c2ccc(Cl)cc21` as the compound, how does the “% Inhibition” value read?
**A.** Its value is -1%.

**Q.** And the Z score?
**A.** The Z score was 0.23.

**Q.** `CN(C(=O)OC(C)(C)C)C1CCN(C(=O)C2CC2(Cl)Cl)C1` (stereo unspecified) was tested. Which “% Inhibition” value did it give?
**A.** The value was 0%.

**Q.** And the Z score?
**A.** The Z score was 0.

**Q.** What does the source list for `COc1ccc(C(=O)Nc2ccc(-c3c(-c4ccc(N(C)C)cc4)nn(-c4cccc(F)c4)c3OC(C)=O)cc2)cc1`?
**A.** % Inhibition: -1%; Z score: 0.11

**Q.** For `Cc1cccn(CC(=O)Nc2ccc3c(c2)CCC3)c1=O`, which “% Inhibition” value is on record?
**A.** Its value is -2%.

**Q.** What about the Z score of the same compound?
**A.** The Z score was 0.41.

**Q.** `O=C(c1cnn2cc(CCO)cnc12)N1CCC[C@H](c2nccn2CC2CC2)C1` was tested. Which “% Inhibition” value did it give?
**A.** The value was -10%.

**Q.** What about the Z score of the same compound?
**A.** Its Z score is 1.85.

**Q.** Which “% Inhibition” value does the source give for `COCCN1CCC[C@@](O)(CN2CCc3[nH]c4ccccc4c3C2)C1=O` here?
**A.** Its value is -7%.

**Q.** What about the Z score of the same compound?
**A.** Its Z score is 1.02.

**Q.** With `COC(=O)C(C)(C)CNCc1ccc(C)cn1` as the compound, how does the “% Inhibition” value read?
**A.** Its value is -4%.

**Q.** And the Z score?
**A.** The Z score was 0.67.

**Q.** Which “% Inhibition” value does the source give for `Cn1c(C(=O)NCCN2CCC[C@H](C(N)=O)C2)cc2ccc(Cl)cc21` here?
**A.** Its value is -1%.

**Q.** What about the Z score of the same compound?
**A.** Its Z score is 0.11.

**Q.** `CC(C)c1ccc(NC(=O)C2CCN(C(=O)c3ccc(-c4ccccc4)cc3)CC2)cc1` was tested. Which “% Inhibition” value did it give?
**A.** The value was 4%.

**Q.** What about the Z score of the same compound?
**A.** The Z score was -0.46.

**Q.** How did the “% Inhibition” value turn out when `COc1cccc2c1OC[C@@H](C(=O)N(C)Cc1nccs1)C2` was run?
**A.** The value was -6%.

**Q.** What about the Z score of the same compound?
**A.** Its Z score is 0.78.

**Q.** For `CN1CC(=O)N(c2cccc(NS(=O)(=O)NCc3ccccc3)c2)C1=O`, which “% Inhibition” value is on record?
**A.** Its value is 1%.

**Q.** What about the Z score of the same compound?
**A.** Its Z score is -0.1.

**Q.** With `O=C(Cn1ccc(C(F)(F)F)cc1=O)NC[C@H]1CCCO1` as the compound, how does the “% Inhibition” value read?
**A.** The value was 4%.

**Q.** What about the Z score of the same compound?
**A.** The Z score was -0.84.

**Q.** For `c1ccc(CCNc2nc(-c3ccccn3)cs2)cc1`, which “% Inhibition” value is on record?
**A.** The value was 34%.

**Q.** And the Z score?
**A.** The Z score was -3.36.

**Q.** Which “% Inhibition” value does the source give for `CC(C)(Cc1cccc(Cl)c1)C(=O)NCc1nnnn1C1CC1` here?
**A.** The value was -6%.

**Q.** And the Z score?
**A.** The Z score was 0.48.

**Q.** How did the “% Inhibition” value turn out when `O=C(Nc1ccc(-c2nnc[nH]2)cc1)[C@@H]1CCCc2ccccc21` was run?
**A.** Its value is 34%.

**Q.** What about the Z score of the same compound?
**A.** Its Z score is -3.86.

**Q.** Which “% Inhibition” value does the source give for `CN1CC[C@@]2(CCC1=O)CN(C(=O)CCc1ccc3c(c1)OCO3)CCN2C` here?
**A.** Its value is 6%.

**Q.** What about the Z score of the same compound?
**A.** The Z score was -1.02.

**Q.** With `O=C(Cn1cc(S(=O)(=O)N2CCCCCC2)ccc1=O)Nc1cc(F)ccc1F` as the compound, how does the “% Inhibition” value read?
**A.** Its value is -1%.

**Q.** And the Z score?
**A.** The Z score was 0.28.

**Q.** How did the “% Inhibition” value turn out when `Cc1cccc(C(=O)Nc2cc(C(=O)O)ccc2N2CCC(N3CCCCC3)CC2)c1` was run?
**A.** Its value is -11%.

**Q.** What about the Z score of the same compound?
**A.** Its Z score is 1.67.

**Q.** What does the source list for `COc1ccc(CCC(=O)O[C@@H](Cn2cncn2)c2ccc(Cl)cc2)cc1`?
**A.** % Inhibition: -6%; Z score: 0.76

**Q.** Which “% Inhibition” value does the source give for `CCN(CC(C)(C)O)S(=O)(=O)N1CC(C)CC(C)C1` (stereo unspecified) here?
**A.** The value was -5%.

**Q.** And the Z score?
**A.** The Z score was 0.79.

**Q.** For `CCOc1cc(N2CCOCC2)c(OCC)cc1NC(=O)c1csc2c1CCCC2`, which “% Inhibition” value is on record?
**A.** The value was -1%.

**Q.** What about the Z score of the same compound?
**A.** Its Z score is 0.19.

**Q.** Which “% Inhibition” value does the source give for `Cc1ccc(-c2nc(Cn3nc(C)c(C)c(C#N)c3=O)co2)c(C)c1` here?
**A.** Its value is -2%.

**Q.** And the Z score?
**A.** The Z score was 0.23.

**Q.** Which “% Inhibition” value does the source give for `O=C(N[C@H]1CCCCNC1=O)c1n[nH]c2c1CCCC2` here?
**A.** Its value is -9%.

**Q.** What about the Z score of the same compound?
**A.** The Z score was 1.5.

**Q.** With `CCN1C(=O)C(c2ccc(O)c(C)c2)(c2ccc(O)c(C)c2)c2cc(Br)ccc21` as the compound, how does the “% Inhibition” value read?
**A.** Its value is 25%.

**Q.** And the Z score?
**A.** The Z score was -3.47.

**Q.** `NC(=O)c1ccc(-c2nc3c([nH]2)CCN(C(=O)CN2CCOC2=O)C3)cc1` was tested. Which “% Inhibition” value did it give?
**A.** The value was 3%.

**Q.** And the Z score?
**A.** Its Z score is -0.51.

**Q.** How did the “% Inhibition” value turn out when `O=C(c1cc(-n2ccnc2)ccn1)N1CC(S(=O)(=O)Nc2ccccc2)C1` was run?
**A.** Its value is -10%.

**Q.** And the Z score?
**A.** Its Z score is 1.29.

**Q.** Which “% Inhibition” value does the source give for `O=C(NCC1CCCCC1)c1ccco1` here?
**A.** Its value is 4%.

**Q.** And the Z score?
**A.** Its Z score is -0.57.

**Q.** For `Cc1cc(C)c(NC(=O)c2cnc(-c3ccccc3)nc2C)c(C)c1`, which “% Inhibition” value is on record?
**A.** The value was -12%.

**Q.** And the Z score?
**A.** The Z score was 1.25.

**Q.** For `CN(C(=O)Cn1cc(C(=O)O)cn1)C1CCCCC1c1ccccc1` (stereo unspecified), which “% Inhibition” value is on record?
**A.** The value was 1%.

**Q.** What about the Z score of the same compound?
**A.** The Z score was -0.14.

**Q.** How did the “% Inhibition” value turn out when `COc1c(C)cc(C)cc1CN1CC[C@H]1C(=O)O` was run?
**A.** The value was -24%.

**Q.** And the Z score?
**A.** The Z score was 2.29.

**Q.** What does the source list for `CN1C[C@@H]2CC[C@H]1CN(C(=O)Nc1ccc(F)c(Cl)c1)C2`?
**A.** % Inhibition: 3%; Z score: -0.41

**Q.** Which “% Inhibition” value does the source give for `Cc1nc(C)n(CC2CN(C(=O)C3CCCN(C(=O)C(C)C)C3)CCO2)n1` (stereo unspecified) here?
**A.** Its value is -6%.

**Q.** What about the Z score of the same compound?
**A.** Its Z score is 0.68.

**Q.** With `Cc1nc(C(C)C)ccc1C(=O)N(C)CC1(CO)CC1` as the compound, how does the “% Inhibition” value read?
**A.** Its value is -14%.

**Q.** And the Z score?
**A.** Its Z score is 1.83.

**Q.** How did the “% Inhibition” value turn out when `Cc1cc(-c2nc([C@@H]3CCCc4ccccc43)no2)n[nH]1` was run?
**A.** Its value is -3%.

**Q.** What about the Z score of the same compound?
**A.** Its Z score is 0.41.

**Q.** With `CC(NC(=O)C(C)N1CCC(OCCN2CCOCC2)CC1)c1ccc(F)cc1` (stereo unspecified) as the compound, how does the “% Inhibition” value read?
**A.** The value was -9%.

**Q.** What about the Z score of the same compound?
**A.** The Z score was 1.1.

**Q.** Which “% Inhibition” value does the source give for `Cc1ccccc1-c1noc2ncnc(NCc3ccc4c(c3)OCO4)c12` here?
**A.** Its value is 1%.

**Q.** What about the Z score of the same compound?
**A.** The Z score was -0.13.

**Q.** How did the “% Inhibition” value turn out when `Cc1nc2cnccn2c1NCCC(=O)N1CCCCCC1` was run?
**A.** The value was -17%.

**Q.** And the Z score?
**A.** Its Z score is 2.41.

**Q.** For `CCO[C@H](C(=O)Nc1nccnc1C1CC1)C1CCCC1`, which “% Inhibition” value is on record?
**A.** The value was -1%.

**Q.** And the Z score?
**A.** The Z score was 0.08.

**Q.** What does the source list for `O=C(Nc1ccc(Cl)cc1)c1cc(CN2CCCC2)on1`?
**A.** % Inhibition: -10%; Z score: 1.05

**Q.** Which “% Inhibition” value does the source give for `O=C(NCc1ccccn1)[C@@H]1CCCO1` here?
**A.** The value was -5%.

**Q.** And the Z score?
**A.** Its Z score is 0.79.
